31 molecules from PMC9911399, “Two distinct binding modes provide the RNA-binding protein RbFox with extraordinary sequence specificity” can be followed below.

T1: RBFOX1 RRM (Homo sapiens, UniProt Q9NWB1 109-208)
T1 sequence: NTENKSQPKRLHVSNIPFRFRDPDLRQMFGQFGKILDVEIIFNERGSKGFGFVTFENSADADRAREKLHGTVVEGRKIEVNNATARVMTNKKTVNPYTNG

B1: GCAGUUG (DNA:RNA)
RNA: GGGAGACCGGAAUUCAGAUUGUCCGCAGUUGUUAAAUCCCGUCGUAGCCACCA
DNA 1: CAATCTGAATTCCGGTCTCCC
DNA 2: TGGTGGCTACGACGGGATT
B2: CGUGAUC (DNA:RNA)
RNA: B1 RNA with G25C, C26G, A27U, U29A, G31C
DNA 1: CAATCTGAATTCCGGTCTCCC
DNA 2: TGGTGGCTACGACGGGATT
B3: CAGGCUA (DNA:RNA)
RNA: B1 RNA with G25C, C26A, A27G, U29C, G31A
DNA 1: CAATCTGAATTCCGGTCTCCC
DNA 2: TGGTGGCTACGACGGGATT
B4: AGCUGAG (DNA:RNA)
RNA: B1 RNA with G25A, C26G, A27C, G28U, U29G, U30A
DNA 1: CAATCTGAATTCCGGTCTCCC
DNA 2: TGGTGGCTACGACGGGATT
B5: CCCGCUU (DNA:RNA)
RNA: B1 RNA with G25C, A27C, U29C, G31U
DNA 1: CAATCTGAATTCCGGTCTCCC
DNA 2: TGGTGGCTACGACGGGATT
B6: CCGUAGU (DNA:RNA)
RNA: B1 RNA with G25C, A27G, G28U, U29A, U30G, G31U
DNA 1: CAATCTGAATTCCGGTCTCCC
DNA 2: TGGTGGCTACGACGGGATT
B7: UAAACAG (DNA:RNA)
RNA: B1 RNA with G25U, C26A, G28A, U29C, U30A
DNA 1: CAATCTGAATTCCGGTCTCCC
DNA 2: TGGTGGCTACGACGGGATT
B8: UAACGAU (DNA:RNA)
RNA: B1 RNA with G25U, C26A, G28C, U29G, U30A, G31U
DNA 1: CAATCTGAATTCCGGTCTCCC
DNA 2: TGGTGGCTACGACGGGATT
B9: GGAGGCU (DNA:RNA)
RNA: B1 RNA with C26G, U29G, U30C, G31U
DNA 1: CAATCTGAATTCCGGTCTCCC
DNA 2: TGGTGGCTACGACGGGATT
B10: GUUUAGG (DNA:RNA)
RNA: B1 RNA with C26U, A27U, G28U, U29A, U30G
DNA 1: CAATCTGAATTCCGGTCTCCC
DNA 2: TGGTGGCTACGACGGGATT
B11: GUGUCUC (DNA:RNA)
RNA: B1 RNA with C26U, A27G, G28U, U29C, G31C
DNA 1: CAATCTGAATTCCGGTCTCCC
DNA 2: TGGTGGCTACGACGGGATT
B12: AUUGGAC (DNA:RNA)
RNA: B1 RNA with G25A, C26U, A27U, U29G, U30A, G31C
DNA 1: CAATCTGAATTCCGGTCTCCC
DNA 2: TGGTGGCTACGACGGGATT
B13: UUCAACG (DNA:RNA)
RNA: B1 RNA with G25U, C26U, A27C, G28A, U29A, U30C
DNA 1: CAATCTGAATTCCGGTCTCCC
DNA 2: TGGTGGCTACGACGGGATT
B14: UGUGGUA (DNA:RNA)
RNA: B1 RNA with G25U, C26G, A27U, U29G, G31A
DNA 1: CAATCTGAATTCCGGTCTCCC
DNA 2: TGGTGGCTACGACGGGATT
B15: AUUUAAC (DNA:RNA)
RNA: GGGAGACCGGAAUUCAGAUUGUCCAUUUAACUUAAAUCCCGUCGUAGCCACCA
DNA 1: CAATCTGAATTCCGGTCTCCC
DNA 2: TGGTGGCTACGACGGGATT
B16: AGCAUGG (DNA:RNA)
RNA: B1 RNA with G25A, C26G, A27C, G28A, U30G
DNA 1: CAATCTGAATTCCGGTCTCCC
DNA 2: TGGTGGCTACGACGGGATT
B17: AUCCAAU (DNA:RNA)
RNA: B15 RNA with U27C, U28C, C31U
DNA 1: CAATCTGAATTCCGGTCTCCC
DNA 2: TGGTGGCTACGACGGGATT
B18: UGGGGAC (DNA:RNA)
RNA: B15 RNA with A25U, U26G, U27G, U28G, A29G
DNA 1: CAATCTGAATTCCGGTCTCCC
DNA 2: TGGTGGCTACGACGGGATT
B19: UAACUAU (DNA:RNA)
RNA: B1 RNA with G25U, C26A, G28C, U30A, G31U
DNA 1: CAATCTGAATTCCGGTCTCCC
DNA 2: TGGTGGCTACGACGGGATT
B20: AUUACCU (DNA:RNA)
RNA: B15 RNA with U28A, A29C, A30C, C31U
DNA 1: CAATCTGAATTCCGGTCTCCC
DNA 2: TGGTGGCTACGACGGGATT
B21: UUCACGA (DNA:RNA)
RNA: B15 RNA with A25U, U27C, U28A, A29C, A30G, C31A
DNA 1: CAATCTGAATTCCGGTCTCCC
DNA 2: TGGTGGCTACGACGGGATT
B22: GAAUAGC (DNA:RNA)
RNA: B15 RNA with A25G, U26A, U27A, A30G
DNA 1: CAATCTGAATTCCGGTCTCCC
DNA 2: TGGTGGCTACGACGGGATT
B23: GUGGGCU (DNA:RNA)
RNA: B1 RNA with C26U, A27G, U29G, U30C, G31U
DNA 1: CAATCTGAATTCCGGTCTCCC
DNA 2: TGGTGGCTACGACGGGATT
B24: CUCGUGU (DNA:RNA)
RNA: B1 RNA with G25C, C26U, A27C, U30G, G31U
DNA 1: CAATCTGAATTCCGGTCTCCC
DNA 2: TGGTGGCTACGACGGGATT
B25: CUACUUC (DNA:RNA)
RNA: B1 RNA with G25C, C26U, G28C, G31C
DNA 1: CAATCTGAATTCCGGTCTCCC
DNA 2: TGGTGGCTACGACGGGATT
B26: GACUCGA (DNA:RNA)
RNA: B15 RNA with A25G, U26A, U27C, A29C, A30G, C31A
DNA 1: CAATCTGAATTCCGGTCTCCC
DNA 2: TGGTGGCTACGACGGGATT
B27: GUCAAUU (DNA:RNA)
RNA: B15 RNA with A25G, U27C, U28A, A30U, C31U
DNA 1: CAATCTGAATTCCGGTCTCCC
DNA 2: TGGTGGCTACGACGGGATT
B28: GAGCUAA (DNA:RNA)
RNA: B1 RNA with C26A, A27G, G28C, U30A, G31A
DNA 1: CAATCTGAATTCCGGTCTCCC
DNA 2: TGGTGGCTACGACGGGATT
B29: CGCCUAA (DNA:RNA)
RNA: B15 RNA with A25C, U26G, U27C, U28C, A29U, C31A
DNA 1: CAATCTGAATTCCGGTCTCCC
DNA 2: TGGTGGCTACGACGGGATT
B30: ACGCGGC (DNA:RNA)
RNA: B15 RNA with U26C, U27G, U28C, A29G, A30G
DNA 1: CAATCTGAATTCCGGTCTCCC
DNA 2: TGGTGGCTACGACGGGATT
B31: GGUCAGU (DNA:RNA)
RNA: B15 RNA with A25G, U26G, U28C, A30G, C31U
DNA 1: CAATCTGAATTCCGGTCTCCC
DNA 2: TGGTGGCTACGACGGGATT

Numbering of substitutions follows the chain as printed; changes in the protein carry UniProt numbers. The list shows a part of the results.

The target of this assay is T1, RBFOX1 RRM. Briefly: EMSA; HiTS-Eq, 1 nM pool, 10 min; buffer printed only for the single-RNA assays: 10 mM Tris pH 7.5, 150 mM NaCl, 3.4 mM EDTA, 0.001% NP-40, 30 C. As to conditions: tags: His6 N-terminal (pET28a); label: 5' 32P. In a few lines: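 Purified wild-type or mutant RbFox RRM at increasing concentrations was equilibrated with 1 nM of 5′-radiolabelled RNA carrying 7 randomized nucleotides for 10 min in 50 µL. Unbound RNA was separated by 8% native PAGE and sequenced. Relative association constants came from read-count changes of each RNA species compared with the control reaction, normalised to the cognate motif.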
A general note: Mobility shift assays separate free from complexed probe on a gel.
Consider B1, for which the binding signal is 0.0127 KA relative to UGCAUGU. Next, B2: 0.0175 KA relative to UGCAUGU; B3: 0.0121 KA relative to UGCAUGU. As to B4, the binding signal was 0.0184 KA relative to UGCAUGU. In the case of B5, the binding signal is 0.00454 KA relative to UGCAUGU. B6: the binding signal was 0.00942 KA relative to UGCAUGU. As to B7, the binding signal is 0.0034 KA relative to UGCAUGU. Next, B8: 0.00896 KA relative to UGCAUGU; B9: 0.0186 KA relative to UGCAUGU. The value for B10 was 0.0122 KA relative to UGCAUGU; that for B11 was 0.0141 KA relative to UGCAUGU; that for B12 was 0.00518 KA relative to UGCAUGU. Consider B13, for which the binding signal was 0.00556 KA relative to UGCAUGU. Next, B14: 0.0252 KA relative to UGCAUGU; B15: 0.00273 KA relative to UGCAUGU. On to B16, for which the binding signal is 0.347 KA relative to UGCAUGU. With B17, the binding signal is 0.000695 KA relative to UGCAUGU. In the case of B18, the binding signal is 0.00842 KA relative to UGCAUGU. Regarding B19, the binding signal was 0.00371 KA relative to UGCAUGU.

With B20, the binding signal was 0.000788 KA relative to UGCAUGU. The value for B21 was 0.00967 KA relative to UGCAUGU. B22: the binding signal is 0.00832 KA relative to UGCAUGU. On to B23, for which the binding signal is 0.0216 KA relative to UGCAUGU. On to B24, for which the binding signal was 0.0166 KA relative to UGCAUGU. For B25, the binding signal is 0.00256 KA relative to UGCAUGU.

For B26, the binding signal is 0.0136 KA relative to UGCAUGU.

B27: the binding signal was 0.00563 KA relative to UGCAUGU.

With B28, the binding signal was 0.00768 KA relative to UGCAUGU. Turning to B29, the binding signal was 0.00532 KA relative to UGCAUGU. Regarding B30, the binding signal was 0.0106 KA relative to UGCAUGU. On to B31, for which the binding signal is 0.0152 KA relative to UGCAUGU.
